Data: the supplement of paper PMC3334620
In all, about 33,000 sequences were measured (“E-score (-0.5 to 0.5)”: median about -0.043, highest 2% from about 0.37 on). The list shows a part of the results.

Each sequence was assayed against T1, Upc2 (UniProt Q12151) (assay: PBM E-score (8-mer binding enrichment) (E-score (-0.5 to 0.5)); higher = stronger / more preferred TF binding; most listed sequences are background and not binding sites). Conditions: protein concentration: 200 nM; construct: GST-full length.
T1 sequence: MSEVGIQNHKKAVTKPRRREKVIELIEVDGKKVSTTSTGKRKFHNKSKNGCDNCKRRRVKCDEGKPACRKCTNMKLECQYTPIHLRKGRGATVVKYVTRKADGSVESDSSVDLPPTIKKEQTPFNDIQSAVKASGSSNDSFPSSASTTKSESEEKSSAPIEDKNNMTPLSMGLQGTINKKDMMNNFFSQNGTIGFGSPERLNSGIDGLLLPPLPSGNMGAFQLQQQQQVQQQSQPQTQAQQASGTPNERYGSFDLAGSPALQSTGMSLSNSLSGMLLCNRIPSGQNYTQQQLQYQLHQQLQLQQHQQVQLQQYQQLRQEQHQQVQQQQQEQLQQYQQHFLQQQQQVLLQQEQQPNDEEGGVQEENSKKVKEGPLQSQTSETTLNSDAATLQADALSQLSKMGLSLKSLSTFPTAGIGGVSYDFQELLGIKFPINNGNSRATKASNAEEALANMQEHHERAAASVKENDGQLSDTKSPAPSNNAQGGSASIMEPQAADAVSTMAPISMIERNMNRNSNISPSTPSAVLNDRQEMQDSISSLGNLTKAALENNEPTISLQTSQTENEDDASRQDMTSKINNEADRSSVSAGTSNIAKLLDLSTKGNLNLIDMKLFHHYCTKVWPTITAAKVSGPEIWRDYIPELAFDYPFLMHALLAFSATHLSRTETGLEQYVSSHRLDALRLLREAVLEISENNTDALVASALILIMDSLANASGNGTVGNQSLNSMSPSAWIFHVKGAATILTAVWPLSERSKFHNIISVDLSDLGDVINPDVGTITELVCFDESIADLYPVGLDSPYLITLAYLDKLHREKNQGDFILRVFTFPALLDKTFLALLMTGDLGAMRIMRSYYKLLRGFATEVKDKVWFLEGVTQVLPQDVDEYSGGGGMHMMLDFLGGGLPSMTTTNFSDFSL
Outline: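 Bound GST-tagged yeast transcription factors, applied at about 100-200 nM to double-stranded universal all-10-mer Agilent arrays, were detected with fluorescent anti-GST. Scans were normalised with masliner. A modified Wilcoxon-Mann-Whitney statistic, the E-score, was assigned to each ungapped eight-base word pooled with its reverse complement by the Universal PBM Analysis Suite.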

Sequence | PBM E-score
ATCTGATG | -0.158
GCGGAAAC | -0.0877
AGTCGTTA | 0.317
ACGGTGTA | 0.308
CGTCCCCC | -0.194
AGGCAGTA | -0.125
TAACGAAA | 0.334
GAACATAC | 0.243
ACAAAAAC | 0.139
GGCAACAC | -0.167
TCCGTACA | 0.406
GTATCTAA | 0.131
CGCAGATA | -0.0855
ATCTCGAC | 0.0574
GAATGGCA | -0.18
CAGGAGGA | -0.183
GACTACAA | -0.0845
ACGAGCGA | 0.379
ATCTTAGA | -0.0845
ATTATGTA | 0.0402
GTCGAATA | 0.258
CATAATGG | -0.179
ATACGCTA | 0.329
AGACGGAG | -0.0909
GATATGAA | 0.0888

Sequence | PBM E-score
CACAGCGA | 0.0677
CCGTTACC | 0.0638
ACCGGTTG | 0.11
CGTCTCTC | -0.0107
ACTCTTCA | -0.00317
CACTAATG | -0.0741
ACCAGTCT | 0.0395
GTGACGCA | -0.0632
AAGTATAC | 0.306
ACGTCTGG | -0.00268
ACTCCCCC | -0.13
ACTTGAAC | 0.276
AGCAATGC | 0.0427
AGTCGATA | 0.0566
AGATGGGA | -0.335
AGACAGAT | -0.164
ATAAGGCC | -0.0528
AACTCTTG | -0.188
AGTCTGGG | -0.0458
AACACGGC | -0.188
GTGCGCCA | -0.114
GTAAAAAA | 0.123
TGGCTAAA | -0.186
CTCTGCAA | -0.0496
ATTCCTAA | -0.00315

Sequence | PBM E-score
TGTCATAA | 0.0655
GCGACTCC | -0.0919
GATCAAAA | -0.0517
AAACGAAG | 0.464
CGACGTTC | 0.143
CGTAGCTA | 0.203
AATAATCC | -0.0617
GTACCTAA | 0.181
ACCCGCCC | -0.0357
AACTCTGG | 0.0038
CTGGCTAC | 0.132
CGGGCTGC | 0.00474
GATTTATA | 0.21
AACCCTGC | 0.0669
CACATATG | -0.15
ACAATCCT | -0.183
ATGTGTCA | -0.224
AGTTTCCA | -0.116
ATTGCTGG | -0.0945
ACGTCTTG | -0.0246
TATCCACA | -0.164
CTATGGAC | -0.193
ACGTCGTG | 0.0636
CCCCACAG | -0.153
GATCTACC | -0.0836

Sequence | PBM E-score
GTTCCTCA | -0.0794
AGCAATAG | -0.0995
AACATACA | 0.0209
CGGCTTAA | 0.113
ACCGTGCG | 0.0948
GTAGGCAA | -0.0681
AGAGGCTA | -0.168
CAGTCATG | -0.372
CAATACTA | -0.206
AACGACTT | 0.305
CTTAGAAG | -0.0532
GACTCCTA | -0.308
AGCGTATG | 0.268
AGCATCGC | 0.0481
AAACGTTG | 0.196
CCCGGGTA | 0.0367
CATTCTAC | -0.0747
AGTGGCAA | -0.0731
ATAAGTCG | 0.178
AACCCTCC | -0.159
GGGTAGGA | -0.251
CTAAAGGA | -0.0487
CCGAACGG | 0.199
CTCCACAA | -0.0492
GCCCAAAA | -0.183

Sequence | PBM E-score
ATTTTTTG | -0.114
CGTGCGCC | -0.111
ATGTGCGA | 0.183
GCGGATAC | 0.173
ATTGGTCC | -0.115
CACCAAGA | -0.123
ATGGCGGA | -0.291
AACGTTGG | 0.0877
AGGAGACT | -0.276
CACGCTCA | -0.175
AGCTATAG | -0.335
CGACTACA | 0.0715
AGCAAAGA | -0.287
GGGGGTAC | 0.038
GAAATTTC | -0.129
AGGACCGC | -0.0146
GAGTACTA | 0.146
GCAAGCGA | 0.174
CGACAACC | 0.201
AACCAAGA | -0.216
AAGGGATA | -0.148
CAGCTCGC | 0.177
AGTTGAAT | -0.0311
AAAGAGCT | -0.156
AATTTCTC | -0.13

Sequence | PBM E-score
TCCACCAA | -0.202
ATGGACTG | -0.0948
CTGAAAGC | -0.0469
AATTCCTC | 0.0346
CCTATATC | -0.111
GTCGTGGA | -0.269
ACATGAGT | -0.14
ACTTGAGC | -0.084
GATTTTAC | 0.158
GACGAAGC | 0.00181
GGAACGAC | 0.453
CATCCCCC | -0.241
CGTCCGAC | -0.0139
ATATAGTA | 0.0248
GCCGCGAA | -0.105
CTAATAGA | 0.064
ACAAGACC | -0.248
AAGTAGAA | -0.176
ACCAGGAG | -0.167
CGAAATAG | 0.0802
CTCGAAGC | -0.218
TCTGCGCA | -0.00778
CTCATAAG | -0.0756
AGAGGTAC | -0.158
ATCGCACG | -0.0846

Sequence | PBM E-score
GAGCGATC | 0.11
TCGGCAAA | 0.1
AAGCGCGA | 0.0392
GACATAGC | -0.239
CTTCCATC | -0.243
GATCTTGC | -0.106
CGACCAGA | 0.0386
ATCAGTTG | -0.172
ATAACCCC | -0.125
CAGTACTA | -0.0786
CCGTGTAC | 0.28
ACCAAGGA | -0.182
ATCGGGGC | -0.0345
AATAGACT | -0.11
ACTCTCCC | -0.306
CTGAATAA | -0.077
TAATTATA | 0.206
GGCGAAGA | -0.241
AGACGGGG | -0.147
GTCGTTAA | 0.465
CCCAAAAC | 0.0799
AGCCCCTC | 0.0707
CATTATGA | -0.00873
CACTAGTG | -0.0259
CCAGCTTC | 0.0777

Sequence | PBM E-score
CGCACTAC | -0.0438
CCCCTACG | -0.00672
CACGGTAG | -0.132
ACCACTTG | 0.0216
CAAGGATA | -0.154
CGGGGGAG | -0.327
TGCACTAA | 0.132
AGATTCGG | -0.0979
AGCACATC | -0.0866
GACGGATA | 0.017
ATCGCTTA | 0.364
TCCGATAA | -0.0419
AGTGGATA | -0.0766
GAGTATGA | 0.122
ACTATTGA | -0.107
CCTCTCGA | -0.233
AGCATCCG | 0.106
ATGCTCTG | -0.327
CAATGTTC | -0.0537
GGATTGTA | 0.107
ACGGCGCC | 0.163
AACGTGGG | 0.0129
ATCGCACA | 0.179
GCGCATGA | -0.299
CATGCACA | -0.124

Sequence | PBM E-score
CAACCCTG | -0.111
ACCTACGT | 0.0734
GGGACTTA | 0.0736
CTACGAAG | 0.316
ACACTACC | -0.098
TACCTCCA | -0.00908
AGTGCTAA | 0.00422
GTCAGCCA | -0.216
AGGGATTG | 0.058
GCGCGGTA | 0.103
TCTGAGCA | -0.13
ACCCTATC | -0.0893
GAGACGTA | 0.113
ATTTGGAG | -0.217
ACATTAAA | 0.099
CCTGTATA | 0.157
CGTACTCC | 0.256
CCTATTTC | -0.147
ACCGATCG | 0.22
